# Measurements from PubChem BioAssay AID902 (National Center for Advancing Translational Sciences (NCATS), 2007).
# Screen size: about 130,000 compounds; about 1,900 (1.5%) were called active. The shares of active, inactive and inconclusive entries below differ from those in the screen. The call rests on the fitted dose curve; in most records, active means well fitted cell-killing curve with a large enough effect; inconclusive means small, poorly fitted or top-dose-only effect; inactive means no such curve, though single readings can be large or run the other way. A potency beside an inconclusive call is a rough fit, not a confirmed value.
# Experiment: qHTS Screen for Compounds that Selectively Target Cancer Cells with p53 Mutations: Cytotoxicity of p53ts Cells at the Nonpermissive Temperature; further: nearly all actives have a fitted effect of over 55% in size
# Conditions: H1299-p53A138V viability at 39C, ATP luminescence, 24 h; activity change, negative = cell killing: at 46.1 µM (top of the series)
# On the % scale 0 is the no-effect control and ±100 the full control effect; potency means the concentration at half of the fitted maximal effect; tags describe the fitted curve by direction and shape.
Compound,Potency,"activity change, negative = cell killing"
C=C(C)CSC1=C(C#N)C(c2ccccc2Cl)CC(=O)N1 (stereo not given),inactive,
O=C(Nc1cccc(Cl)c1)c1cnc[nH]1,inactive,
O=C(CSc1nnc(-c2ccc(F)cc2)o1)Nc1ccc(S(=O)(=O)N2CCCCCC2)cc1,"inconclusive: 25.1 µM [cytotoxic, single point]",
COc1cccc(C2=CC(c3cccc(OC)c3OC)n3nnnc3N2)c1 (stereo not given),"inconclusive: 31.6 µM [cytotoxic, single point]",
COc1ccccc1NC(=O)C1=C(C)Nc2nc(SCc3ccccc3C)nn2C1CC(C)C (stereo not given),"inconclusive: 10 µM [cytotoxic, partial curve]",
Cc1ccc(-n2ncc3c(NCCCn4ccnc4)ncnc32)c(C)c1,"inconclusive: 31.6 µM [cytotoxic, single point]",
Cn1c(=O)c2c(SCC(=O)N3CCCc4ccccc43)nc(CC(C)(C)C)nc2n(C)c1=O,"inconclusive: 31.6 µM [cytotoxic, single point]",
COc1ccc(-c2cc(C(F)(F)F)n3nc(C(=O)NCC45CC6CC(CC(C6)C4)C5)cc3n2)cc1,"inconclusive: 12.6 µM [cytotoxic, single point]",
Cc1c(C(=O)OC2CCCC2)[nH]c2c1C(=O)CC(c1ccco1)C2 (stereo not given),inactive,
Cc1sc2nc3c4ccccc4c(NCc4ccco4)nn3c(=O)c2c1C,"inconclusive: 31.6 µM [cytotoxic, single point]",
CN(C)C(=O)c1ccc(-c2nc(-n3ccnc3)c3ccccc3n2)cc1,active: 10 µM,
Cc1c(C(=O)Nc2ccccn2)oc2ccccc12,"inconclusive: 12.6 µM [cytotoxic, partial curve]",
CN(C)CCCN1c2ccccc2Sc2ccccc21,"inconclusive: 10 µM [cytotoxic, partial curve]",
CC(C)c1ccc(NC(=O)C2CCCN(S(=O)(=O)c3ccc4[nH]c(=O)ccc4c3)C2)cc1 (stereo not given),active: 10 µM,
CCOC(=O)c1ccc2c(c1)N(CC(=O)Nc1ccc(CC)cc1)C(=O)c1ccccc1S2,"inconclusive: 0.0794 µM [cytotoxic, full curve, poor fit]",
O=C(NCCCCc1ccccc1)c1nn(-c2ccccc2)nc1CO,"inconclusive: 12.6 µM [cytotoxic, partial curve, poor fit]",
O=C(CC1(O)C(=O)N(Cc2ccccc2)c2ccc(Br)cc21)c1ccccc1 (stereo not given),active: 15.8 µM,
O=C(Cc1ccccc1F)N1CCC(c2nc3c(nnn3Cc3cccc(Cl)c3)c(=O)[nH]2)CC1,"inconclusive: 14.1 µM [cytotoxic, single point]",
Cc1cccc(N2CCN(c3ncnc4onc(C)c34)CC2C)c1 (stereo not given),active: 20 µM,
Cc1cnc(NC(=O)COc2ccccc2Cl)s1,active: 5.01 µM,
Cc1nc(-c2cccc(F)c2)sc1CCNC(=O)C(=O)Nc1ccc2c(c1)OCO2,"inconclusive: 10 µM [cytotoxic, partial curve]",
N#Cc1nc(/C=C/c2ccc(F)cc2)oc1NC1CCCCC1,"inconclusive: 31.6 µM [cytotoxic, single point]",
O=C(Nc1ccc2nc(SCC(=O)N3CCOCC3)sc2c1)c1ccccc1Cl,inactive,

Compound,Potency,"activity change, negative = cell killing"
COc1cc(Cl)c(NS(=O)(=O)c2ccc(-c3coc(C)n3)cc2)c(OC)c1,"inconclusive: 31.6 µM [cytotoxic, partial curve]",
CC[C@@H](Nc1ncnc2nc[nH]c12)C(=O)O,,inactive: 8% [at 9.22 µM]
CCN(c1ncnc2c1cnn2-c1cccc(Cl)c1)C1CCCCC1,"inconclusive: 10 µM [cytotoxic, partial curve]",
CSc1ccc(CNC(=O)Cn2ccc3cc(S(=O)(=O)N4CCCC4)ccc32)cc1,"inconclusive: 1 µM [cytotoxic, full curve, poor fit]",
O=C(Nc1ccc(-c2nc3ccccc3o2)cc1)C1CCCO1 (stereo not given),active: 10 µM,
COc1cc(/C=N/NC(=O)c2cc(-c3ccccc3)n[nH]2)ccc1O,inactive,
Cc1ccnc(NC(=O)Nc2ccc(F)cc2)c1,"inconclusive: 15.8 µM [cytotoxic, partial curve]",
O=C(Cn1c(=O)n(-c2ccccc2)c(=O)c2sc3ccccc3c21)NC1CCCC1,"inconclusive: 0.005 µM [cytotoxic, full curve, poor fit]",
Cc1ccc(C)c(Nc2nn3c(=O)c4ccc(C(=O)NCc5cccs5)cc4nc3s2)c1,"inconclusive: 31.6 µM [cytotoxic, single point]",
O=C(CSc1nnc2[nH]c(=O)cc(-c3ccccc3)n12)Nc1cc(C(F)(F)F)ccc1Cl,active: 1.26 µM,
CCOC(=O)c1nc(-c2ccc3c(c2)OCO3)[nH]c1C,"inconclusive: 10 µM [cytotoxic, partial curve, poor fit]",
Brc1ccc2nc(SCCOc3ccccc3)[nH]c2c1,"inconclusive: 25.1 µM [cytotoxic, single point]",
Cc1ccc2c(c1)N(C(=O)Nc1cccc3c1CCCC3)CC(C)O2 (stereo not given),,inconclusive: -35.8% [cytotoxic]
CNC(=O)c1ccc(CSc2nc3ccncc3n2Cc2ccc(C)cc2)cc1,"inconclusive: 31.6 µM [cytotoxic, single point]",
Cc1ccc(-c2nc3cc(C(C)C)ccc3o2)cc1NC(=O)c1cc([N+](=O)[O-])ccc1N1CCOCC1,inactive,
Cc1ccc(Nc2nc(C3CC3)cs2)cc1,"inconclusive: 20 µM [cytotoxic, partial curve]",
COc1ccc2[nH]c3nc(SC(C)C)nnc3c2c1,active: 10 µM,
CN(C)c1ncc2nc(-c3ccccc3)c(=O)n(C3CC3)c2n1,inactive,
O=C(Nc1ccc(C(=O)N2CCN(c3ccccc3)CC2)cc1)c1nsc2ccccc12,"inconclusive: 0.316 µM [cytotoxic, full curve, poor fit]",
CCCN(CCC)CCNC(=O)C1CCN(c2nc3ccc(CC)cc3s2)CC1,"inconclusive: 31.6 µM [cytotoxic, single point]",
O=C(N/N=C/c1cccs1)c1ccc2c(c1)OCO2,active: 10 µM,
CCOc1ccc(CCNC(=O)c2cc3sc(CC)cc3n2C)cc1OCC,inactive,
